Results are given in words; binding and its absence hold for the method and conditions named. Some entries that bind do so weakly or less than the wild type. Tags and fused reporters may be left off the sequences shown.
T1: GST-Rev1-PAD (truncated Rev1, amino acids 623 to 767, including the polymerase-associated domain) (S. cerevisiae) (UniProt P12689)
T1 sequence: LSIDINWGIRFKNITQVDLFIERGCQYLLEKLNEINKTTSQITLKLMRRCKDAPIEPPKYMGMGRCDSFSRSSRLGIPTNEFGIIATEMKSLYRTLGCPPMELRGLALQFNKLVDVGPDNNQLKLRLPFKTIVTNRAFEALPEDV

T2: GST-Rev1 (full-length Rev1) (S. cerevisiae, UniProt P12689 1-985)
T2 construct: Rev1, yeast, full-length; Held on the beads by GST during the incubation; Rev1 was cut from GST by PreScission protease only at the elution step; not shown: GST, N-terminal, kept
T2 sequence (looked up): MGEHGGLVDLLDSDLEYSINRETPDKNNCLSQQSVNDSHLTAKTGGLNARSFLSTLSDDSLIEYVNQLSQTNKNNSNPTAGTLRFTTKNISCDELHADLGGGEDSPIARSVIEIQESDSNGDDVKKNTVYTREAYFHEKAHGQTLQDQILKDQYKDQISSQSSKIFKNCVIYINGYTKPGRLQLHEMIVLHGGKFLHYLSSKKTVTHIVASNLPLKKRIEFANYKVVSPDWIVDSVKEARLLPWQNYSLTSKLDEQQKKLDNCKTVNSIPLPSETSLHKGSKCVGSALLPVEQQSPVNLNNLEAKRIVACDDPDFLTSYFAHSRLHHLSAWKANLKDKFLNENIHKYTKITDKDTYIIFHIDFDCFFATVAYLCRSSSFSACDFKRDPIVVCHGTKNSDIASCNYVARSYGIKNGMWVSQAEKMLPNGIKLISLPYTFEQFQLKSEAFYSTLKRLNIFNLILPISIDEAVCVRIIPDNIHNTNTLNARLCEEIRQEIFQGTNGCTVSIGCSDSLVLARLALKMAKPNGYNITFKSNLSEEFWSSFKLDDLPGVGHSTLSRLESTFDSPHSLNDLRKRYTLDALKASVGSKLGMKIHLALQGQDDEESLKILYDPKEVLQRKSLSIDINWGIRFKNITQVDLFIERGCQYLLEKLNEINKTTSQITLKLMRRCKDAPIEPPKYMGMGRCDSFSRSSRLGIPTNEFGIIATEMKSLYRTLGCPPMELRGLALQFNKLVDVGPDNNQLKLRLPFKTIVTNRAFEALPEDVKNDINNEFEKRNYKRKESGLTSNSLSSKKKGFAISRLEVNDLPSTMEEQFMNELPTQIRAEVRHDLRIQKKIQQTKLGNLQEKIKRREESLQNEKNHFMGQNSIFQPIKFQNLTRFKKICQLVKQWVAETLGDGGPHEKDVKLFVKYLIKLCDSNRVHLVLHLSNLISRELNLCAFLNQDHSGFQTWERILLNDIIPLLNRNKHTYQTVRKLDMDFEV

T3: GST-Rad54 (S. cerevisiae) (UniProt P32863)
T3 sequence: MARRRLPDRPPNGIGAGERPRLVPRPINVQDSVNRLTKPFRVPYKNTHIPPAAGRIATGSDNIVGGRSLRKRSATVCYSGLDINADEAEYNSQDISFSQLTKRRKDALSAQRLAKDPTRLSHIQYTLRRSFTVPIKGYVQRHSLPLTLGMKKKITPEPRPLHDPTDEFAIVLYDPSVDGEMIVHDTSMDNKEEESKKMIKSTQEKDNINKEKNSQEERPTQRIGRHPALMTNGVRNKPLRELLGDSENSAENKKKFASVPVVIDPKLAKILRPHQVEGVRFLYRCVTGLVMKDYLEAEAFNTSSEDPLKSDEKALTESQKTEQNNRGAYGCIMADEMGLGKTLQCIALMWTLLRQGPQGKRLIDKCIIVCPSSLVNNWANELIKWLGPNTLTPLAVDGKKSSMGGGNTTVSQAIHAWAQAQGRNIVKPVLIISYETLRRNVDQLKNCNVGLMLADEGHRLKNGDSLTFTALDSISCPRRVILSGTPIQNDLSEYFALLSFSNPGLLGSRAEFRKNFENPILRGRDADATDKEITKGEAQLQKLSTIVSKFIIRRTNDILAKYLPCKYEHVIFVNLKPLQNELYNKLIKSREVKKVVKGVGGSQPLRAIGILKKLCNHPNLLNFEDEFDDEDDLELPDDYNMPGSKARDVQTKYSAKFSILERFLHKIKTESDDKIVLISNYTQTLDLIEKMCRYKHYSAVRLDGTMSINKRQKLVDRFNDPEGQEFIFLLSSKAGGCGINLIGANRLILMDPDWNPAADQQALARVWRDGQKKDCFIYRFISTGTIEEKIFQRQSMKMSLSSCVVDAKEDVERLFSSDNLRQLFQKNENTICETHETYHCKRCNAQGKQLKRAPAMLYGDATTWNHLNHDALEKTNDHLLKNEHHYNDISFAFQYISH


What was measured:
[1] = biological target: T1, GST-Rev1-PAD (truncated Rev1, amino acids 623 to 767, including the polymerase-associated domain) (S. cerevisiae); assay: pull-down; GST-Rev1-PAD pull-down repeated with varying (50–150 mM) salt concentrations; data not shown; both purified
[2] = biological target: T1, GST-Rev1-PAD (truncated Rev1, amino acids 623 to 767, including the polymerase-associated domain) (S. cerevisiae); assay: pull-down; GST-Rev1-PAD (5 μg) immobilised on glutathione-Sepharose beads, incubated with purified PCNA (5 μg) overnight on ice; 50 mM Tris/HCl pH 7.5, 100 mM NaCl, 1 mM EDTA, 1 mM DTT, 10% glycerol, 0.01% Nonidet P-40; five washes; eluted with 20 mM reduced glutathione; SDS-PAGE; both purified
[3] = biological target: T2, GST-Rev1 (full-length Rev1); assay: pull-down; GST-Rev1 (5 μg) immobilised on glutathione-Sepharose beads, incubated with purified PCNA (3 μg) overnight on ice; 50 mM Tris/HCl pH 7.5, 100 mM NaCl, 1 mM EDTA, 1 mM DTT, 10% glycerol, 0.01% Nonidet P-40; five washes; eluted by PreScission protease cleavage of Rev1 from GST; SDS-PAGE; both purified
[4] = biological target: T3, GST-Rad54 (S. cerevisiae); assay: pull-down; GST-Rad54 (3 μg) immobilised on glutathione-Sepharose beads, incubated with purified PCNA (5 μg) overnight on ice; 50 mM Tris/HCl pH 7.5, 100 mM NaCl, 1 mM EDTA, 1 mM DTT, 10% glycerol, 0.01% Nonidet P-40; five washes; eluted with 20 mM reduced glutathione; SDS-PAGE; both purified
[5] = biological target: T3, GST-Rad54 (S. cerevisiae); assay: pull-down; GST-Rad54 pull-down under different reaction conditions, 50–150 mM salt concentrations; data not shown; both purified

binding [1]	binding [2]	binding [4]	binding [5]	Molecule	binding [3]
binds	binds			II99,100AA mutant PCNA (from UniProt P15873 1-258)	no binding (tested: 3 μg PCNA with 5 μg GST-Rev1)
		binds	binds	II181,182AA mutant PCNA (from UniProt P15873 1-258)	
binds	binds	binds	binds	wild type PCNA (proliferating cell nuclear antigen, Saccharomyces cerevisiae) (natural protein, S. cerevisiae, PCNA (POL30 gene product), Saccharomyces cerevisiae, wild type; the oligomeric state of the purified protein was not measured here; also called wt PCNA; yeast PCNA; source: yeast BJ5464, overexpressed as GST fusion, purified on glutathione-Sepharose 4B, GST removed by PreScission protease; not shown: GST, N-terminal, cleaved) MLEAKFEEASLFKRIIDGFKDCVQLVNFQCKEDGIIAQAVDDSRVLLVSLEIGVEAFQEYRCDHPVTLGMDLTSLSKILRCGNNTDTLTLIADNTPDSIILLFEDTKKDRIAEYSLKLMDIDADFLKIEELQYDSTLSLPSSEFSKIVRDLSQLSDSINIMITKETIKFVADGDIGSGSVIIKPFVDMEHPETSIKLEMDQPVDLTFGAKYLLDIIKGSSLSDRVGIRLSSEAPALFQFDLKSGFLQFFLAPKFNDEE	
